Data reported in publication PMC4336329 (PLoS ONE, 2015).
Among all 310,000 compounds or so, about 2,200 (0.71%) showed an effect of 50% or more. The effect is printed as a negative number. Some of the results follow.

target: human ether-à-go-go-related gene (hERG) potassium channel (human, UniProt Q12809); assay: primary screen, population patch clamp on CHO cells stably expressing hERG
Sequence (Q12809 whole entry, looked up): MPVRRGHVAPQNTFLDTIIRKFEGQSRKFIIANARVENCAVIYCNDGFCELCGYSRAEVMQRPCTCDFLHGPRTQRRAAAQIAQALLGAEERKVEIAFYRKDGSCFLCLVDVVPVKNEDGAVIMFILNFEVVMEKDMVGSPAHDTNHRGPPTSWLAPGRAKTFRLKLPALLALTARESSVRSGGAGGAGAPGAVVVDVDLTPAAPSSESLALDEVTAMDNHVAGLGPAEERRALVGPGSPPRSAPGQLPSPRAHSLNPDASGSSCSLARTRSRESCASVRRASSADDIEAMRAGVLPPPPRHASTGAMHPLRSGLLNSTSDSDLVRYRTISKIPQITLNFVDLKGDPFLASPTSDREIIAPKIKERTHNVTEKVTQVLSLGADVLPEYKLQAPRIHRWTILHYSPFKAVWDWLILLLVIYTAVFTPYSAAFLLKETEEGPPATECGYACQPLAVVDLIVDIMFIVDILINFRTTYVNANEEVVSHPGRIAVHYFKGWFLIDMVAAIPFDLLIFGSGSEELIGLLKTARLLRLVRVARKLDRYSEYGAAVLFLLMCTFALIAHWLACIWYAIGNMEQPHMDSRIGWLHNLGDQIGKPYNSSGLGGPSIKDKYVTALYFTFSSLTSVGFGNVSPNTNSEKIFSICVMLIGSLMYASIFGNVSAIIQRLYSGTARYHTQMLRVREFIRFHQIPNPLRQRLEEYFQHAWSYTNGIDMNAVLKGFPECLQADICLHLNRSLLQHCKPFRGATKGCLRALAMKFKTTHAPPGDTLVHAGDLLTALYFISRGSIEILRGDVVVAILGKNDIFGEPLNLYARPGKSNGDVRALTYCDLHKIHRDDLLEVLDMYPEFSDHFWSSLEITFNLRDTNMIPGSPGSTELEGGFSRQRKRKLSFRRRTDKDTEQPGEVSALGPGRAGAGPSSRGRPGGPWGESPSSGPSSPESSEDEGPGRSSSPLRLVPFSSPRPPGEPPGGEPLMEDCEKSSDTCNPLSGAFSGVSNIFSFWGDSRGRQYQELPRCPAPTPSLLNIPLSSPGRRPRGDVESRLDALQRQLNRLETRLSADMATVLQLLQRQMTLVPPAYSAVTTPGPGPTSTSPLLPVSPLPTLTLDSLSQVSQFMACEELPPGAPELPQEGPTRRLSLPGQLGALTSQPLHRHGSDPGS

Compared with `CCCc1cc(-c2[nH]ncc2-c2ccc3c(c2)OCCCO3)c(O)cc1O`, `Oc1ccc(N2CCN(Cc3cc4c(cc3Br)OCCO4)CC2)cc1` is higher in “hERG current change (%, negative = inhibition) at 1uM” value: -4.05% for the first, -1.18% for the second.

Going from `O=C(CSC1=NC(=O)C(c2ccccc2)C(=O)N1)Nc1ccccc1[N+](=O)[O-]` (stereo not drawn) to `CCOC(=O)CNC(=O)CN1C(=O)CC(c2ccccc2)S(=O)(=O)c2ccccc21` (stereo not drawn), the “hERG current change (%, negative = inhibition) at 1uM” value falls from 10.5% to 8.95%.

Going from `COc1ccc(CCN2C(=O)CC(N3CCN(S(=O)(=O)c4ccccc4)CC3)C2=O)cc1OC` (stereo not drawn) to `COc1ccccc1OCC(=O)Nc1cc(S(=O)(=O)N2CCCCC2)ccc1N1CCCCC1`, the “hERG current change (%, negative = inhibition) at 1uM” value falls from 7.31% to 4.32%.

Compared with `COCC(=O)NNC(=O)c1ccc(OC)cc1`, `CCOC(=O)Cc1csc(NC(=O)c2cccc(OC)c2)n1` is higher in “hERG current change (%, negative = inhibition) at 1uM” value: 6.44% for the first, 9.05% for the second.

Going from `COC(=O)c1ccc2c(c1)NC1=C(C(=O)CC(C)(C)C1)C(c1ccncc1)N2` (stereo not drawn) to `CC1=C(C(=O)Nc2cc(C)ccn2)C(c2ccc(C)cc2)C2=C(CCCC2=O)N1` (stereo not drawn), the “hERG current change (%, negative = inhibition) at 1uM” value falls from 7.34% to -11.1%.

Going from `Cc1ccc(CSc2nc3ncccc3[nH]2)cc1` to `COc1ccc(Cc2c(O)nc(SCC(=O)c3ccc(OC)cc3)[nH]c2=O)cc1`, the “hERG current change (%, negative = inhibition) at 1uM” value falls from 14.3% to 11.3%.

First: COc1cc(CNCc2ccc(OC)cc2OC)cc(OC)c1.O=C(O)C(=O)O
Second: COc1ccc2c(c1)c(CC(=O)Nc1ccccc1OC)c(C)n2C(=O)c1ccc(Cl)cc1
The “hERG current change (%, negative = inhibition) at 1uM” value of the first is lower: 3.21% for the first, 3.97% for the second.

Compared with `CC(NC(=O)c1ccco1)C(=O)OCC(=O)c1ccc(Cl)s1` (stereo not drawn), `O=C(Nc1cccc(NC(=O)c2ccco2)c1)c1cnccn1` is lower in “hERG current change (%, negative = inhibition) at 1uM” value: 19.3% for the first, -1.07% for the second.

Going from `COc1ccccc1NC(=O)N1CCCC1C(=O)NCc1ccc(F)cc1` (stereo not drawn) to `COc1ccc(OC)c(CN2CCN(CC(=O)Nc3ccccc3C(=O)NC3CC3)CC2)c1`, the “hERG current change (%, negative = inhibition) at 1uM” value falls from 9.38% to -87.6%.

First: C/C(CCc1ccc2c(c1)OCO2)=N\N=C(/N)SC1CC(=O)N(c2ccc(Cl)cc2)C1=O (stereo not drawn)
Second: Cc1cc(C(=O)N/N=C/c2ccc3c(c2)OCO3)c(C)n1-c1ccc(F)cc1
The “hERG current change (%, negative = inhibition) at 1uM” value of the first is higher: 14.7% for the first, 10.6% for the second.

First: COCCCNC(=S)NNC(=S)NCCCOC
Second: COc1ccc(Br)cc1CNC(=O)CCNC(=O)Cn1ccc2ccccc2c1=O
The “hERG current change (%, negative = inhibition) at 1uM” value of the first is higher: 12.9% for the first, -1.56% for the second.

First: O=C(c1ccc(Cl)c(S(=O)(=O)N2CCOCC2)c1)N1CCCCCC1
Second: O=C(Cc1ccc(Br)cc1)N1CCCCCC1
The “hERG current change (%, negative = inhibition) at 1uM” value of the first is lower: 10.4% for the first, 12.4% for the second.

First: CC1Sc2ccc(Cl)cc2-c2nc(N)ncc21 (stereo not drawn)
Second: Cc1cc(C)c2c(n1)sc1c(-c3ccccc3)c(C#N)c(N)nc12
The “hERG current change (%, negative = inhibition) at 1uM” value of the first is higher: 9.09% for the first, -0.899% for the second.

Compared with `CCCC(C(=O)NCc1ccco1)N(C(=O)CNS(=O)(=O)c1ccc(Cl)cc1)C1CCCC1` (stereo not drawn), `Cc1ccc(S(=O)(=O)NCC(=O)N(CC2CCCO2)C(C(=O)NC2CCCC2)C(C)C)cc1` (stereo not drawn) is higher in “hERG current change (%, negative = inhibition) at 1uM” value: 0.955% for the first, 10.1% for the second.

First: COc1ccc2cc(CN(Cc3ccco3)Cc3nnnn3C3CCCCC3)c(=O)[nH]c2c1
Second: Cc1ccc(N(Cc2cc3ccc(C)cc3[nH]c2=O)C(=O)c2ccco2)c(C)c1
The “hERG current change (%, negative = inhibition) at 1uM” value of the first is higher: 3.65% for the first, 3.02% for the second.

First: CCOCCn1c(SC(C)C(C)=O)nc2c1c(=O)[nH]c(=O)n2C (stereo not drawn)
Second: COc1ccc(N2CCN(C(=O)Cn3cnc4c3c(=O)n(C)c(=O)n4C)CC2)cc1
The “hERG current change (%, negative = inhibition) at 1uM” value of the first is lower: -0.132% for the first, 12.9% for the second.

First: CC(=O)C1(c2ccccc2)CCNCC1
Second: CCC(=O)Nc1nc2nc(-c3ccccc3)cc(=O)n2[nH]1
The “hERG current change (%, negative = inhibition) at 1uM” value of the first is higher: 12.2% for the first, 9.51% for the second.

First: CC(C)(C)NC(=O)CSc1nc2ccccc2n1-c1ccccc1
Second: O=C(CCCOc1ccccc1)Nc1nc2ccccc2[nH]1
The “hERG current change (%, negative = inhibition) at 1uM” value of the first is lower: 3.25% for the first, 6% for the second.

Going from `COc1cc(/C=N/NC2=NS(=O)(=O)c3ccccc32)cc(OC)c1OC` to `CCn1c2ccccc2c2cc(N=C3SC(CC(=O)Nc4ccccc4OC)C(=O)N3C)ccc21` (stereo not drawn), the “hERG current change (%, negative = inhibition) at 1uM” value falls from 10.2% to 3.89%.

Going from `CCCCn1nc(NC(=O)COC)c2cc3cc(OC)ccc3nc21` to `Cc1cc(C)c(NC(=O)COc2ccc(-n3cnnn3)cc2)c(C)c1`, the “hERG current change (%, negative = inhibition) at 1uM” value rises from -5.56% to 6.92%.

First: CCc1cc2c(NC(Cc3ccccc3)C(=O)O)nc(C)nc2s1 (stereo not drawn)
Second: Cc1sc2nc(CSc3ccccc3)nc(NCCN(C)C)c2c1C
The “hERG current change (%, negative = inhibition) at 1uM” value of the first is higher: 15.2% for the first, -50.1% for the second.

Going from `Cl.O=S(=O)(c1ccc(F)cc1)N1CCCNCC1` to `CC(C)CCNC(=O)CSc1nnc(-c2ccc(S(=O)(=O)N3CCCC3)cc2)n1C`, the “hERG current change (%, negative = inhibition) at 1uM” value rises from 5.24% to 25.7%.

Going from `O=C(Cc1ccc([N+](=O)[O-])cc1)Nc1cc(C(F)(F)F)cc(C(F)(F)F)c1` to `Cn1nc(C(F)(F)F)cc1C(=O)Nc1ccc(-c2ccno2)cc1`, the “hERG current change (%, negative = inhibition) at 1uM” value rises from 14.1% to 16.1%.

Going from `COCCN(C)C(=O)CC1C(=O)NCCN1CC(c1ccccc1)c1ccccc1` (stereo not drawn) to `CCN(CC)CC#CC(O)(c1ccccc1)c1ccccc1`, the “hERG current change (%, negative = inhibition) at 1uM” value falls from 19.1% to -6.83%.

Compared with `O=C(N/C(C(=O)N1CCOCC1)=C(\Sc1ncccn1)c1ccccc1)c1ccccc1`, `O=C(NC(=Nc1nc2ccccc2o1)NC(=O)c1ccccc1)c1ccccc1` is higher in “hERG current change (%, negative = inhibition) at 1uM” value: 3.42% for the first, 4.48% for the second.

Going from `CN(C)c1ccc(/C=N/NC(=O)c2cc(-c3ccc4c(c3)OCO4)n[nH]2)cc1` to `Cc1ccc(/C=C/C(=O)Nc2ccc(N(C)C)cc2)o1`, the “hERG current change (%, negative = inhibition) at 1uM” value falls from 3.46% to 3.4%.

Going from `Cc1ccccc1NC(=O)Cn1nc(-c2ccc(Cl)s2)ccc1=O` to `CCN1C(=O)c2ccccc2Sc2ccc(C(=O)NC(C)C)cc21`, the “hERG current change (%, negative = inhibition) at 1uM” value falls from 15.6% to 12%.

First: Cc1ccc(C(C(=O)NC2CCCC2)N2CCCCC2)cc1 (stereo not drawn)
Second: Cc1ccc(C2=NS(=O)(=O)N(C)C(C(=O)NC3CCCCC3)=C2)cc1
The “hERG current change (%, negative = inhibition) at 1uM” value of the first is higher: 13% for the first, 10.4% for the second.

Compared with `Cl.O=C([C@@H]1Cc2ccccc2CN1)N1CCN(Cc2ccccc2)CC1`, `CCC(=O)N1CCN(c2ccccc2NC(=O)c2cccc(C)c2)CC1` is lower in “hERG current change (%, negative = inhibition) at 1uM” value: -0.521% for the first, -9.48% for the second.

Compared with `CCOc1ccc(NCc2cccn2-c2nnc(N3CCC(C(=O)NCCCN4CC(C)CC(C)C4)CC3)s2)cc1` (stereo not drawn), `COc1ccc(N2CCC(N3CCN(C)C(CCO)C3)CC2)cc1` (stereo not drawn) is higher in “hERG current change (%, negative = inhibition) at 1uM” value: -26.6% for the first, 13% for the second.

Compared with `CCCCCCCCCCCCN1[C@@H](CC(=O)O)c2cc(F)ccc2S1(=O)=O`, `Cc1ccc(/C(O)=C2\C(=O)C(=O)N(C)C2c2ccc(F)cc2)cc1` (stereo not drawn) is higher in “hERG current change (%, negative = inhibition) at 1uM” value: -3.57% for the first, 14.5% for the second.

Compared with `Cc1ccc(Cn2nc(C)c(C(=O)NCC(c3cccs3)N3CCOCC3)c2Cl)cc1` (stereo not drawn), `COC(=O)NCC(c1cccnc1)N1CCOCC1` (stereo not drawn) is higher in “hERG current change (%, negative = inhibition) at 1uM” value: 9.19% for the first, 14.6% for the second.

First: CCN1C(=O)[C@H]2[C@@H](c3ccc(C)cc3)N3C(=O)N(c4cccc(Br)c4)C(=O)[C@@]3(CC(C)C)[C@H]2C1=O
Second: Cc1cccc(C(C)C)c1NC(=O)COC(=O)c1cccc(S(=O)(=O)N2CCc3ccccc3C2)c1
The “hERG current change (%, negative = inhibition) at 1uM” value of the first is lower: 9.09% for the first, 9.87% for the second.

Going from `O=c1[nH]c2ccc(S(=O)(=O)N3CCC(Cc4ccccc4)CC3)cc2o1` to `COc1ccc(S(=O)(=O)N2CCOC23CCN(C(=O)c2ccccc2OC)CC3)cc1`, the “hERG current change (%, negative = inhibition) at 1uM” value falls from 18% to 3.7%.

First: Fc1cc(Br)ccc1NC(=S)Nc1cccnc1
Second: C=CCn1c(SCc2cccc3ccccc23)nnc1-c1cccnc1
The “hERG current change (%, negative = inhibition) at 1uM” value of the first is higher: 6.8% for the first, 4.97% for the second.

First: CCCn1nnnc1-c1cc(Cl)cc(Cl)c1
Second: C=CCn1c(SC(C)C(=O)Nc2ccc(Cl)cn2)nnc1C1CC1 (stereo not drawn)
The “hERG current change (%, negative = inhibition) at 1uM” value of the first is lower: -10.4% for the first, 4.64% for the second.

First: O=C(O)C1[C@H]2C(=O)N(Cc3cccs3)C[C@]23C=C[C@H]1O3 (stereo partly drawn)
Second: COC(=O)C1=C(C)NC(=O)/C1=C\c1cccs1
The “hERG current change (%, negative = inhibition) at 1uM” value of the first is higher: 5.56% for the first, 0.0419% for the second.

Compared with `N#Cc1cc(C(=O)c2ccccc2O)cn(-c2ccc(Cl)cc2)c1=O`, `COC(=O)C1=CN(c2ccc(OC)cc2)C=C(C(=O)OC)C1c1ccc([N+](=O)[O-])cc1` is higher in “hERG current change (%, negative = inhibition) at 1uM” value: 7.25% for the first, 16.9% for the second.

Going from `COC(=O)c1ccc(OC(=O)CS(=O)c2ccccc2[N+](=O)[O-])cc1` (stereo not drawn) to `Cn1c(SCC(=O)N/N=C/c2ccc([N+](=O)[O-])s2)nnc1-c1ccccc1`, the “hERG current change (%, negative = inhibition) at 1uM” value falls from 26.6% to -6.56%.

First: Cc1cc(SC#N)cc(C)c1NC(=O)CCl
Second: CS(=O)(=O)c1ccc(Cl)c(NC(=O)CSc2n[nH]c(-c3cccs3)n2)c1
The “hERG current change (%, negative = inhibition) at 1uM” value of the first is higher: 11.1% for the first, 1.01% for the second.

Going from `Oc1ccc(N=Cc2cc(Br)c(N3CCOCC3)o2)cc1` to `Cc1ccccc1Nc1nc(N)nc(CSc2nnc3sc4ccccc4n23)n1`, the “hERG current change (%, negative = inhibition) at 1uM” value rises from 15.3% to 16%.

First: CCCN(CCC)CC(O)COc1ccc([N+](=O)[O-])cc1 (stereo not drawn)
Second: CCN(CC(=O)Nc1ccccc1OC)CC(=O)Nc1sccc1C#N
The “hERG current change (%, negative = inhibition) at 1uM” value of the first is lower: -81.4% for the first, 5.94% for the second.

Going from `CCNc1nc(N)nc(Oc2ccc(OCCOc3ccccc3)nn2)n1` to `O=C(COC(=O)c1cccc(OC(F)F)c1)NC(=O)NC1CCCCC1`, the “hERG current change (%, negative = inhibition) at 1uM” value rises from 8.36% to 16.8%.

For `CCCc1cc(=O)[nH]c(SCC(N)=O)n1`, the “hERG current change (%, negative = inhibition) at 1uM” value was -1.05%.
